Measured values: PubChem BioAssay AID588855 (National Center for Advancing Translational Sciences (NCATS), 2011)
Values joined by “and” are separate entries in the source; they are usually repeats but may differ in a detail not shown here. Equal values may be shown once. Screen size: about 410,000 compounds; about 5,000 (1.2%) were called active. Inconclusive results, whose numbers are uncertain, are shown with a selection of clear calls. Calls follow the shape of the dose curve; as a rule, active = well fitted inhibition curve with a large enough effect; inconclusive = small, poorly fitted or top-dose-only effect; inactive = no such curve, though single readings can be large or run the other way. A potency beside an inconclusive call is a rough fit, not a confirmed value.

Assay: qHTS for Inhibitors of TGF-b; also: nearly all actives have a fitted effect of over 65% in size
Details: HepG2 CAGA-GFP TGF-b/SMAD3 reporter, GFP fluorescence, 18 h, TGF-beta stimulated, 500 pg/mL final; series mostly up to 46.1 µM
Summary of the method: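 HEPG2 CAGA-GFP, 1000 cells/well; 2 h settle, 37 C; cpd via pin tool; TGF-b 500 pg/mL final; 18 h, 37 C; GFP imaging ex488/em500-530; %Activity normalised to -TGF-b and +DMSO controls; CRC fit, curve class.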
Potency is read from the fitted curve at half-maximal effect; tags tell the direction and shape of the fitted curve.

Structure (SMILES) | Potency
CCCCOc1cccc(C(=O)Nc2ccc(NC(=O)c3ccco3)cc2)c1 | inactive
COc1ccc(CNC(=O)c2nc(SC(C)C)ncc2Cl)cc1 | inactive
Cc1ccn2c(Nc3ccc4c(c3)OCO4)c(-c3ccc(N(C)C)cc3)nc2c1 | inactive
COc1cc(OC)cc(C(=O)Oc2c(CN3CCOCC3)cc(Cl)c3cccnc23)c1 | inconclusive: 35.5 µM [inhibitor, single point]
COc1cccc(-c2ccc3c(c2)C2CC3CCN2C(C)=O)c1 (configuration not stated) | inactive
CC(Oc1ccccc1)C(=O)NC1CCCCCCC1 (configuration not stated) | inactive
Cc1nc(Nc2ccc(Cl)cc2)cc(-c2ccccc2)n1 | inconclusive: 35.5 µM [inhibitor, single point]
Cc1cc(N2CCCCC2)nc(N)n1 | inconclusive: 35.5 µM [inhibitor, single point]
COc1ccccc1OC(C)C(=O)Nc1c(C(=O)c2ccc(Cl)cc2)oc2ccccc12 (configuration not stated) | inactive
Cc1nc2c(c(C)c1C#N)C(=O)c1ccccc1-2 | inconclusive: 20 µM [inhibitor, single point]
O=C(O)c1cc(NC(=O)c2cccc(F)c2)cc(NC(=O)c2cccc(F)c2)c1 | inactive
O=C(C1CCCCC1)N1C[C@@H](n2cc(-c3ccc(F)cc3)nn2)[C@H](O)C[C@@H]1c1ccc(Cl)cc1 | inconclusive: 14.1 µM [inhibitor, single point]
CCC(=O)N1c2ccccc2CC1C(=O)NCCN1CCN(c2cccc(C(F)(F)F)c2)CC1 (configuration not stated) | inactive
COc1cc(OC)c(C(=O)N(Cc2ccco2)Cc2cccs2)cc1OC | inactive
COc1cc(Nc2ncc3c(n2)CCN(C(=O)Nc2ccc(C(C)C)cc2)C3)cc(OC)c1OC | inconclusive: 11.2 µM [inhibitor, single point]
CN1CCN(NC(=S)NC2CCCC2)CC1 | inactive
COC(=O)c1ccc(-n2c(CCC(=O)O)ccc2-c2ccc(C)cc2)cc1 | inconclusive: 12.6 µM [inhibitor, single point] and inconclusive: 11.2 µM [inhibitor, partial curve]
CC1(C)CC(=O)C2=C(C1)OC(N)=C(C#N)C2C#Cc1ccccc1 (configuration not stated) | inconclusive: 35.5 µM [inhibitor, single point]
C/C(=N\NC(=O)CCC(=O)O)c1c(-c2ccccc2)c2cc(Br)ccc2[nH]c1=O | inactive
CC(C)(C)OC(=O)N1CCC(NC(=O)c2nc[nH]c2C(=O)N2CCc3ccccc3C2)CC1 | inconclusive: 3.98 µM [inhibitor, single point]
CCc1nc2c(OCc3ccccc3C)cccn2c1N(C)C(=O)c1ccco1 | inactive
[N-]=[N+]=NC[C@H](c1ccccc1)N1CCN(Cc2ccccc2)CCC1=O | inactive
CC(C)Oc1ccc(F)cc1-c1cc(C(=O)Nc2ccc(C(C)(C)C)cc2)[nH]n1 | inconclusive: 35.5 µM [inhibitor, single point]
Cc1ccc(Cc2c(-c3ccc(C)cc3)nc3c(C)cc(Br)cn23)cc1 | inconclusive: 22.4 µM [inhibitor, single point]

Structure (SMILES) | Potency
COc1ccccc1-n1cnnc1SCC(=O)Nc1nc(C)c(Cl)cc1Cl | inconclusive: 0.631 µM [inhibitor, full curve, poor fit]
COC(=O)c1ccc(/C=N/Nc2nc(C)c(C)s2)cc1 | inconclusive: 20 µM [inhibitor, partial curve, poor fit]
CCCc1cc(=O)[nH]c(/N=C(\N)Nc2ccccc2)n1 | inactive
OC(c1ccc(Cl)c(Cl)c1)c1ncc(-c2ccc(C(F)(F)F)cc2)[nH]1 (configuration not stated) | inconclusive: 25.1 µM [inhibitor, single point]
Cc1cnc(NS(=O)(=O)c2ccccc2)c(C)n1 | inactive
CN1CCN(C2=Cc3cc(Cl)ccc3Sc3cc(F)ccc32)CC1 | inconclusive: 35.5 µM [inhibitor, single point]
O=C(c1cccnc1)c1cccnc1 | inconclusive: 5.62 µM [inhibitor, single point]
CC(C)COC(=O)NCCCOC(=O)Nc1ccccc1 | inactive
Nc1nc(Cl)nc2c1ncn2C1CC(O)C(CO)O1 (configuration not stated) | inconclusive: 25.1 µM [inhibitor, single point]
O=C(COc1ccc(F)cc1)Nc1nc(-c2cccnc2)cs1 | inactive
CC(NC(=O)c1ccc([N+](=O)[O-])o1)C1CC2CCC1C2 (configuration not stated) | inconclusive: 35.5 µM [inhibitor, single point]
CNc1nc(Nc2ccc(C(=O)OC)cc2)c2sccc2n1 | inactive
CCOC(=O)C(O)C1CCc2c([nH]c3ccc(C)cc23)C1=O (configuration not stated) | inconclusive: 35.5 µM [inhibitor, single point]
CC(C)C[C@H]1CNC(=S)N1C[C@H]1CCCN1C[C@H](CC(C)C)N1C[C@H](Cc2ccc(O)cc2)N(CC2CCCCCC2)C1=S | active: 6.31 µM
Cc1c(NC(=O)COC(=O)c2ccccc2Cl)c(=O)n(-c2ccccc2)n1C | inactive
O=C(N/N=C/c1cn(-c2ccccc2)nc1-c1cccnc1)c1ccccc1 | inactive
C=CCSc1nnc2c(n1)OC(c1ccccn1)N(C(C)=O)c1ccccc1-2 (configuration not stated) | inconclusive: 0.562 µM [inhibitor, partial curve, poor fit]
CCC(C)NC(=O)CSc1c2c(nc3ccccc13)CCCC2 (configuration not stated) | inconclusive: 35.5 µM [inhibitor, single point]
Cc1ccc(O)c(C(=O)/C=C/c2ccc3c(c2)OCCO3)c1 | inconclusive: 35.5 µM [inhibitor, single point]
CCC(c1nnnn1C1CCCCC1)N(Cc1ccco1)Cc1cc2ccc(OC)cc2[nH]c1=O (configuration not stated) | inconclusive: 11.2 µM [inhibitor, partial curve, poor fit]
Cc1ccc(OCC(=O)c2cc(C)n(-c3ccccc3)c2C)c([N+](=O)[O-])n1 | inconclusive: 20 µM [inhibitor, partial curve, poor fit]
Cc1ccc(O)c(NC(=O)c2ccc(Br)c(S(=O)(=O)N3CCCCC3)c2)c1 | inconclusive: 22.4 µM [inhibitor, partial curve, poor fit]
CCN(Cc1ccccc1)C(=O)Cn1cc(S(=O)(=O)Cc2cccc(Cl)c2)c2ccccc21 | inactive
Cc1ccc(S(=O)(=O)N(CC(=O)N2CCCCC2)c2cccc(C)c2)cc1 | inactive

Structure (SMILES) | Potency
O=C(Nc1cc(S(=O)(=O)N2CCOCC2)ccc1OCC(F)(F)F)c1ccc(N2CCCC2=O)cc1 | inconclusive: 0.794 µM [inhibitor, full curve, poor fit]
COc1ccc(Cl)cc1NC(=O)COC(=O)CCc1cc(OC)c(OC)c(OC)c1 | inactive
COCCNc1nnc(SCC(=O)c2c[nH]c3ccccc23)s1 | inactive
CC(C)C(=O)Nc1cccc(NC(=S)NC(=O)c2ccc([N+](=O)[O-])cc2)c1 | inconclusive: 35.5 µM [inhibitor, single point]
CN(CC(=O)Nc1ccc(N2CCOCC2)cc1)C(=O)CSc1ccc(Br)cc1 | inactive
O=c1cc(N2CCCCC2)c(-c2ccccc2)nn1Cc1cccc(Cl)c1 | inconclusive: 35.5 µM [inhibitor, single point]
Cc1cc(=O)[nH]c(Nc2cccc(C(F)(F)F)c2)n1 | inconclusive: 14.1 µM [inhibitor, single point]
Cc1cc2cc(C(c3nnnn3Cc3ccco3)N3CCc4ccccc43)c(=O)[nH]c2cc1C (configuration not stated) | inconclusive: 17.8 µM [inhibitor, single point]
S=c1[nH]cc(-c2ccccc2)[nH]1 | inactive
CNC(=O)/C(C#N)=C/c1cccc(Oc2ccccc2)c1 | inconclusive: 35.5 µM [inhibitor, single point]
C=Cc1ccc(Cn2c(C)c(C(=O)NCc3cccc([N+](=O)[O-])c3)sc2=O)cc1 | inconclusive: 14.1 µM [inhibitor, single point]
O=C(NCC(c1ccco1)N1CCCCC1)c1ccc(COc2ccc(Cl)cc2)cc1 (configuration not stated) | active: 12.6 µM
Cc1cc(Cl)ccc1NC(=O)CN1C(=O)C(=O)N(C2CCCC2)C1=O | inactive
CC(C(=O)OCC(=O)N1CCCCC1)N1C(=O)c2ccccc2C1=O (configuration not stated) | inconclusive: 0.112 µM [inhibitor, full curve, poor fit]
O=C(NCCCCNC(=O)c1ccccc1F)c1ccccc1F | inactive
CCN(Cc1ccncc1)C(=O)c1cc(COc2c(F)cccc2F)on1 | inactive
N#Cc1ccsc1NC(=O)CN1CCN(c2ccc(O)cc2)CC1 | inactive
CCCCN(CCCNc1ncnc2nc[nH]c12)c1ccccc1 | inconclusive: 2 µM [inhibitor, partial curve, poor fit]
Cc1ccc(CN2CCN(C3CCN(C(=O)c4ccccc4)CC3)C(=O)C2=O)cc1 | inconclusive: 31.6 µM [inhibitor, single point]
Cc1nc(-c2ccc(Cl)cc2)sc1CCNC(=O)Cc1ccc(F)cc1 | inconclusive: 2.82 µM [inhibitor, full curve, poor fit]
CC1=C(C(=O)N(C)C)CC(CC(=O)NC(c2ccccc2)c2ccccc2)C(=O)N1Cc1ccc(C(C)(C)C)cc1 (configuration not stated) | inconclusive: 15.8 µM [inhibitor, single point]
Cc1ccc2nc(-c3ccc(NS(=O)(=O)c4c(C)n(C)c(=O)n(C)c4=O)cc3)sc2c1 | inconclusive: 35.5 µM [inhibitor, single point]
COc1ccc(S(=O)(=O)N2CCC(C(=O)N3CCN(C)CC3)CC2)cc1OC | inactive
Oc1[nH]c2ccccc2c1N=NC(=S)NCCc1ccccc1 | active: 11.2 µM
